Data reported in publication PMC4336329 (PLoS ONE, 2015).
In all, about 310,000 compounds went through this assay and about 2,200 (0.71%) showed an effect of 50% or more. Effects have a minus sign here. The list shows a part of the results.

What follows are molecules tested against human ether-à-go-go-related gene (hERG) potassium channel (human, UniProt Q12809) (assay: primary screen, population patch clamp on CHO cells stably expressing hERG).
Sequence of human ether-à-go-go-related gene (hERG) potassium channel (Q12809 whole entry, looked up): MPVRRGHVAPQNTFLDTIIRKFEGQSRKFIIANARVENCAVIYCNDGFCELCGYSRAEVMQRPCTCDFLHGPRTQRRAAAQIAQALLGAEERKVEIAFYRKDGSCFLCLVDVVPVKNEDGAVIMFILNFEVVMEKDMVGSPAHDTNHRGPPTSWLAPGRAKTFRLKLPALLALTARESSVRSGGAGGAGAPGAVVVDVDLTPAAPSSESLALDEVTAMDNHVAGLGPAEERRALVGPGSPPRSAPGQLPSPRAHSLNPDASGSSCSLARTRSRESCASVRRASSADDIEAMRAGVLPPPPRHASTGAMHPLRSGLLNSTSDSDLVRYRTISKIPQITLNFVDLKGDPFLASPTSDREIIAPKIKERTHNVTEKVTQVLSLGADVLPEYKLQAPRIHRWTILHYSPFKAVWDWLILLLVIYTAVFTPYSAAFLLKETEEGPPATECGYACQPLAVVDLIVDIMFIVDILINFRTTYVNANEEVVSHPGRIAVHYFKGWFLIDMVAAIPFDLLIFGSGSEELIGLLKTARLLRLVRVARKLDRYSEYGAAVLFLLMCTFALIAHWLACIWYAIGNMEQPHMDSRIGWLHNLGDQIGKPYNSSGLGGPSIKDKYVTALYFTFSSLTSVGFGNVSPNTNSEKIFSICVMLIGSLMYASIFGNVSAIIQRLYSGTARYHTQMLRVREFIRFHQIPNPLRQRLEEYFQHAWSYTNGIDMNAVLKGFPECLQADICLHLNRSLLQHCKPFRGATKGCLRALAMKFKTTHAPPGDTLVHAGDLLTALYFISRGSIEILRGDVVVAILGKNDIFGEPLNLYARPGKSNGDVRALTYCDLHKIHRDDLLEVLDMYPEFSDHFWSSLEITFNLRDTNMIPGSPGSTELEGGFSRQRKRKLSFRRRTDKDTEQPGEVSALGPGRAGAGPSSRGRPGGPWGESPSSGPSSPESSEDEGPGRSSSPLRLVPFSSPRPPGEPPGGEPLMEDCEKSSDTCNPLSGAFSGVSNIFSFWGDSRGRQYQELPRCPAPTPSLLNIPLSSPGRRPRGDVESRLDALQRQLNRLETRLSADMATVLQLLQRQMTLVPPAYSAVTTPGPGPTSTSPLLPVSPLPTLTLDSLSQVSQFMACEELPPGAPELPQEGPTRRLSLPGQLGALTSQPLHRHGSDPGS

| SMILES | hERG current change (%, negative = inhibition) at 1uM |
| --- | --- |
| CC(=O)N1N=C(c2ccco2)CC1c1ccc(C)cc1 (stereo not drawn) | 10.4% |
| COC(=O)c1cc(C(=O)Nc2nc3ccccc3[nH]2)cc([N+](=O)[O-])c1 | 14% |
| CCC(=O)N1CCc2cc(Br)cc(S(=O)(=O)N3CCC(C(=O)NCCCOC(C)C)CC3)c21 | 14.4% |
| O=c1[nH]c(O)c(N=Nc2cc(C(F)(F)F)ccc2Cl)c(=O)[nH]1 | 11.8% |
| O=C(O)Cc1ccc(NC(=O)c2ccc(Cl)c(Cl)c2)cc1 | 14.6% |
| Cc1ccc(C(=O)NNC(=O)C2CC2)cc1Br | 16.8% |
| O=C(NCCc1ccccn1)c1ccc(S(=O)(=O)N2CCCCCC2)cc1 | -5.2% |
| c1c(CC2CCCC2)nnn1C[C@H]1CC[C@@H]([C@@H]2CC[C@H](Cn3cc(CC4CCCC4)nn3)O2)O1 | -21.8% |
| CC1CCN(C(=O)CC(NC(=O)c2ccccc2Cl)c2ccccc2)CC1 (stereo not drawn) | 4.86% |
| CC(C)(C)Nc1c(-c2cccs2)nc2ccccn12 | 14.1% |
| CCN(CC)c1ccc(C(=O)Nc2ccccc2)cc1[N+](=O)[O-] | 4.11% |
| COc1cccc(OC)c1C(=O)Nc1cccc(NC(=O)c2cccs2)c1 | 16.7% |
| CCCn1nnc(NC(=O)c2ccc(Br)cc2)n1 | 4.06% |
| CC(C)c1ccc(C(O)c2cnc(C(C)C)n2C)cc1 (stereo not drawn) | 3.38% |
| O=C(CSc1nnc(CNc2ccccc2)o1)N1CCCc2ccccc21 | -3.37% |
| CCOC(=O)c1cnn(Cc2ccc(C)cc2)c1N | 14.5% |
| O=C1c2ccncc2C(=O)N1CO | 13.1% |
| Cc1cccc2cc(CN(Cc3cccs3)Cc3nnnn3Cc3ccccc3)c(=O)[nH]c12 | -3.15% |
| CC1CN(C(=O)Nc2ccc3c(c2)OCCO3)CC(C)O1 (stereo not drawn) | 14% |
| O=S(=O)(Nc1ccc(-c2cn3c(n2)SCC3)cc1)c1ccccc1F | 4.05% |
| Cn1cc(CNCc2ccccc2OCC(O)CN2CCc3ccccc3C2)cn1 (stereo not drawn) | 7.11% |
| Cc1ccc2c(=O)[nH]c(Cc3ccccc3C(=O)O)nc2c1 | 16% |
| Br.O=C(O)c1ccccc1CSC1=NCCS1 | 1.13% |

| SMILES | hERG current change (%, negative = inhibition) at 1uM |
| --- | --- |
| COc1ccc(N(CC(=O)NCc2ccc3c(c2)OCO3)S(C)(=O)=O)cc1OC | 5.76% |
| CCC(=O)Nc1ccc(-c2nn3c(C)nnc3s2)cc1C | -1.19% |
| Cc1ccc(/C=N/NC(=O)C(C)Oc2cccc3ccccc23)o1 (stereo not drawn) | 6.79% |
| CCN(Cc1nc(-c2cccc(C)c2)no1)C(=O)c1ccc2c(c1)OCO2 | 2.74% |
| O=Cc1c(N2CCSCC2)nc2ccccn2c1=O | 4.12% |
| CCc1ccc(N2CC(C(=O)OCC(=O)NC3CCS(=O)(=O)C3)CC2=O)cc1 (stereo not drawn) | 11.4% |
| N#CC1(c2ccccc2)CCC(=O)N1c1ccccc1 (stereo not drawn) | 14.9% |
| COc1cnc(SC)nc1Nc1ccc(C#N)cc1 | -9.86% |
| COc1ccc(C(=O)Nc2ccc(NC(=O)c3cnccn3)cn2)cc1 | 7.26% |
| O=S(=O)(c1ccc(Cl)cc1)N1CCNCC1 | 10.9% |
| Cc1cccc(NC(=O)CSc2nnc(-c3ccc(S(=O)(=O)N4CCOCC4)cc3)n2C)c1 | -5.53% |
| Cn1cc([N+](=O)[O-])c(C(=O)Nc2ccc3c(C(F)(F)F)cc(=O)oc3c2)n1 | 11.2% |
| CCCCCn1c(NCc2ccco2)nc2ccccc21 | -41.5% |
| CCCS(=O)(=O)N1CCCC(C(=O)N2CCOCC2)C1 (stereo not drawn) | 4.33% |
| N#Cc1ccsc1NC(=O)C1CCCN1S(=O)(=O)c1cccs1 (stereo not drawn) | 22.2% |
| N#Cc1ccc(/C=C/C(=O)c2cccnc2)cc1 | -26.5% |
| O=C(COC(=O)c1ccc(S(=O)(=O)N2CCCC2)cc1)Nc1ccc(F)cc1F | 1.39% |
| Fc1ccc(/C=N/Nc2nc3ccccc3[nH]2)cc1F | 2.37% |
| CCC(CC)C(=O)Nc1cccc(C(=O)NCCc2ccccc2)c1 | 5.81% |
| C(=N\n1cnnc1)/c1cccc(OCCOc2ccccc2)c1 | 7.28% |
| Cc1cc(N/N=C(/CCC(=O)[O-])C(=O)[O-])nc2ccccc12.[K+] | 26.3% |
| Cc1ccc([N+](=O)[O-])c(OCCn2cnc3ccccc32)c1 | 11.3% |
| O=C1NC[C@@H](Cc2cccc3ccccc23)N(CC2CCCCC2)C1=O | 7.59% |

| SMILES | hERG current change (%, negative = inhibition) at 1uM |
| --- | --- |
| CN(C)c1c([N+](=O)[O-])ncn1C | 2.47% |
| COc1cccc(C2NC(=O)NC(O)(C(F)(F)F)C2C(=O)c2cccnc2)c1OC (stereo not drawn) | 4.51% |
| CCOC(=O)c1sc(N)nc1C(C)C | 6.5% |
| O=[N+]([O-])c1cc(/C=N/N/C(=N/c2ccccn2)c2ccccn2)ccc1O | 11.3% |
| Cc1ccc2cc(CN(Cc3nnnn3Cc3ccco3)CC3CCCO3)c(=O)[nH]c2c1C (stereo not drawn) | 0.251% |
| Fc1ccc2nc(C3CCCCN3Cc3nc(CC4CC4)no3)[nH]c2c1 (stereo not drawn) | 14.7% |
| CCc1ccc(OCCCC(=O)Nc2ccc(S(=O)(=O)Nc3cc(C)nc(C)n3)cc2)cc1 | 14.5% |
| CCCCN(C(=O)Cn1nnc2ccccc21)C(C(=O)NCCOC)c1cccs1 (stereo not drawn) | 20.7% |
| Cc1nc2ccccc2n1C1CC(=O)N(Cc2ccccc2)C1=O (stereo not drawn) | 15.9% |
| CCOC(=O)C1=C(C)NC(C)=C(C(=O)OCC)C1C(=O)O | -4.2% |
| CNC(=S)N1CCc2sccc2C1C (stereo not drawn) | 6.76% |
| CCCCc1nc2cc(C(=O)NCCc3c(C)n[nH]c3C)ccc2o1 | 7.7% |
| Cc1ccc2c(c1)N(CC(=O)OC(CC(C)C)C(=O)NC1CCCC1)C(=O)CO2 (stereo not drawn) | -13.6% |
| Cc1ccc(C(=O)Cn2c(-c3ccccc3)noc2=O)cc1 | -1.49% |
| Cc1cccc(-n2nnnc2SCC(=O)Nc2ccc(N3CCN(C)CC3)cc2)c1 | 2.19% |
| CCOC(=O)c1c(NC(=O)c2ccc(Cl)s2)sc(C)c1C | 11.2% |
| COC(=O)c1ccc(C(=O)OC)c(NC(=O)C2CCCO2)c1 (stereo not drawn) | 9.88% |
| O=C(CSc1nnc(C2CCCCC2)n1-c1ccccc1)NCc1ccco1 | -4.92% |
| CCCn1nc(NC(=O)c2cccs2)c2cc3cccc(C)c3nc21 | 2.01% |
| O=C(Nc1ccc2c(c1)CCC2)Nc1ccc2c(c1)OCO2 | 3.41% |
| CCn1c(=S)sc2c(=O)n(CC(=O)Nc3ccc(Cl)cc3)c(C)nc21 | 14.1% |
| CSc1ccc(C(=O)N2CCC(CCC(=O)NC3CC3)CC2)cc1 | 9.38% |
| COc1ccc(C(=O)N2CCC(C(=O)N3CCN(c4ccc(OC)cc4)CC3)CC2)cc1 | -2.46% |

| SMILES | hERG current change (%, negative = inhibition) at 1uM |
| --- | --- |
| CC1O[C@@H](O[C@H](C)CC[C@@H](C)O)C(O)C[C@H]1O (stereo partly drawn) | 7.55% |
| O=C1[C@@H]2[C@@H]3C[C@@H]([C@H]4ON=C(c5ccc(Cl)cc5)[C@@H]34)[C@@H]2C(=O)N1c1ccc2c(c1)OCO2 | 0.533% |
| COc1ccc2c(c1)CC/C(=C/c1ccccn1)C2=O | 12.5% |
| CCCCn1c(N)c(N(CCC(C)C)C(=O)C2CC(=O)N(c3ccc(OC)cc3OC)C2)c(=O)[nH]c1=O (stereo not drawn) | -2.27% |
| COc1ccc(-n2c(C)cc(C(=O)Cn3nnc4ccccc4c3=O)c2C)cc1 | 6.13% |
| Cc1cc(C)c2ccc(N)nc2c1O | 0.961% |
| CCOC(=O)c1[nH]ncc1CN1CCC(Cc2cccc(OC)c2)(C(=O)OCC)CC1 | 6.23% |
| COC(=O)C1=C(C)N=c2s/c(=C/c3cccs3)c(=O)n2C1c1cccs1 (stereo not drawn) | 2.76% |
| CC1=C(C#N)C2(O)C(=O)c3ccccc3C2(O)N1 (stereo not drawn) | 16.9% |
| CC(=O)/C=C1/SC(CC(=O)O)C(=O)N1c1ccccc1 (stereo not drawn) | 11.9% |
| COc1cccc(C2=CC(=O)C[C@H](c3ccc(F)cc3)C2)c1OC | -10.2% |
| Cc1cccc(NC(=O)c2cccc3c2C(=O)c2ccccc2-3)c1 | 16.2% |
| COc1cc(C(c2sc3ncnn3c2O)N2CCN(c3ccccc3F)CC2)cc(OC)c1OC (stereo not drawn) | 12.3% |
| C=CCn1c(N)cc(=O)nc1SC(C)C(=O)Nc1cccc2ccccc12 (stereo not drawn) | 5.37% |
| COc1ccc(NC(=O)c2ccc(NC(=O)C(C)C)cc2)c([N+](=O)[O-])c1 | 14.7% |
| COCCn1cnc2c1c(=O)n(CC(=O)c1ccc3c(c1)OCCO3)c(=O)n2Cc1ccccc1 | -3.19% |
| CCOC(=O)Cn1cc(/C=N/NC(=O)c2ccc(C#N)cc2F)c2ccccc21 | -5.54% |
| COc1ccc(-c2nc(-c3ccccn3)no2)cc1 | 12.4% |
| Cc1ccc(NC(=O)OCCN2CCN(Cc3ccccc3)CCC2=O)cc1C | 2.16% |
| O=C(NCCN1CCc2ccccc2C1)Nc1ccc(F)cc1 | -13.7% |
| O=c1c(-c2ccccc2)coc2cc(O)ccc12 | 5.59% |
